In the supplement of paper PMC10441789 one finds antibody binding signal data, which are given here for 40 sequences.

The other results are listed elsewhere or left out. Antibody binding of pooled human sera (four to six donors per pool; dilution not stated) to peptides of the Trypanosoma cruzi antigen TSSA on microarrays. Quantile-normalised fluorescence in arbitrary units, mean of duplicate arrays; higher = more binding. No active / inactive call. The uninfected pools are read here as the healthy donors of the same country. The strongest signals lie near the top of the scale (about 60,000).

The first experiment concerns pooled sera of chronic Chagas disease patients, Colombia. Kind of experiment: antibody binding signal (normalised fluorescence) (arbitrary fluorescence units); higher = stronger serum antibody binding to peptide. Here is the method:
(§1)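 Microarray of 15-residue peptides over residues 30-55 of Trypanosoma cruzi TSSAII, each with 1 to 10 substitutions at naturally variable positions, probed with one serum pool per country.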
Turning to DNKTATGEAPSQPGA, the antibody binding signal is 364.

Regarding TDKKAAAGETPSPPG, the antibody binding signal came out at 310.

For PPSGTEKKAAAGETP, the antibody binding signal worked out at 705.

TISTPPSGTEKKAAT registered an antibody binding signal of 375.

SGTDNKPATGEAPSQ returned an antibody binding signal of 1090.

SGKDNKAATGEAPSQ returned an antibody binding signal of 569.

Sequence GKDKKTAAGEAPSQS yielded an antibody binding signal of 1050.

Consider KKTATGEAPSPSGAS, for which the antibody binding signal was 160.

ISTPPSGTENKAAAG yielded an antibody binding signal of 478.

As to GTEKKPATGEAPSPS, the antibody binding signal amounted to 3230.

ENKTATGETPSPPGA registered an antibody binding signal of 256.

The sequence KDKKAATGEAPSQSG displayed an antibody binding signal of 148.

In the case of SGTDNKAAAGGTPSP, the antibody binding signal stood at 4340.

As for TDNKAAAGETPSQPG, the antibody binding signal was 202.

Sequence PPSGTENKAATGGAP displayed an antibody binding signal of 464.

Consider GKDNKAAAGEAPSQS, for which the antibody binding signal stood at 17400.

PPSGTDNKPATGGAP: the antibody binding signal came to 3350.

On to PSGKEKKAAAGGTPS, for which the antibody binding signal was 9480.

As to TDKKTAAGEAPSQSG, the antibody binding signal came out at 441.

As for KAAAGETPSQPGASS, the antibody binding signal was 199.

Take TDKKAAAGGTPSQPG: the antibody binding signal was determined as 6580.

Regarding NKTATGEAPSPPGAS, the antibody binding signal was 355.

ENKPAAGETPSQPGA: the antibody binding signal turned out to be 342.

The sequence PSGKDNKTATGGAPS returned an antibody binding signal of 5480.

KKAAAGGAPSQSGAS: the antibody binding signal amounted to 2740.

Sequence DNKAAAGGTPSPPGA displayed an antibody binding signal of 2920.

Take TEKKAAAGGTPSQSG: the antibody binding signal was 6530.

Consider TEKKPATGGAPSPSG, for which the antibody binding signal came out at 3450.

Take KPAAGGTPSQSGASS: the antibody binding signal came out at 1220.

GKEKKTATGGAPSQP gave an antibody binding signal of 3150.

ISTPPSGKDNKAAAG came in with an antibody binding signal of 304.

GKENKAAAGEAPSPP gave an antibody binding signal of 9850.

Consider KAAAGETPSPPGASS, for which the antibody binding signal stood at 263.

KEKKTAAGEAPSPSG came in with an antibody binding signal of 310.

On to EKKTATGETPSQSGA, for which the antibody binding signal was 381.

With TEKKTAAGGAPSQSG, the antibody binding signal amounted to 9550.

DNKTAAGEAPSPPGA returned an antibody binding signal of 310.

Regarding DKKPAAGETPSQPGA, the antibody binding signal stood at 180.

Regarding GKDKKTATGGTPSPS, the antibody binding signal is 1340.

GKDKKPATGETPSPP: the antibody binding signal came out at 3950.

The next experiment relates to pooled sera of chronic Chagas disease patients, Mexico. The description is as above. The procedure: as §1
On to DNKTATGEAPSQPGA, for which the antibody binding signal is 645.

TDKKAAAGETPSPPG came in with an antibody binding signal of 288.

Regarding PPSGTEKKAAAGETP, the antibody binding signal was 1480.

For the sequence TISTPPSGTEKKAAT, the antibody binding signal turned out to be 11000.

On to SGTDNKPATGEAPSQ, for which the antibody binding signal was determined as 223.

For the sequence SGKDNKAATGEAPSQ, the antibody binding signal amounted to 459.

Sequence GKDKKTAAGEAPSQS yielded an antibody binding signal of 659.

KKTATGEAPSPSGAS returned an antibody binding signal of 342.

As for ISTPPSGTENKAAAG, the antibody binding signal amounted to 7870.

As for GTEKKPATGEAPSPS, the antibody binding signal is 5850.

Sequence ENKTATGETPSPPGA gave an antibody binding signal of 201.

Sequence KDKKAATGEAPSQSG came in with an antibody binding signal of 177.

In turn, SGTDNKAAAGGTPSP had an antibody binding signal of 367.

Sequence TDNKAAAGETPSQPG displayed an antibody binding signal of 185.

On to PPSGTENKAATGGAP, for which the antibody binding signal turned out to be 3480.

In the case of GKDNKAAAGEAPSQS, the antibody binding signal is 15400.

In turn, PPSGTDNKPATGGAP came in with an antibody binding signal of 4080.

The sequence PSGKEKKAAAGGTPS yielded an antibody binding signal of 11300.

In the case of TDKKTAAGEAPSQSG, the antibody binding signal was determined as 338.

KAAAGETPSQPGASS had an antibody binding signal of 170.

TDKKAAAGGTPSQPG showed an antibody binding signal of 422.

Sequence NKTATGEAPSPPGAS had an antibody binding signal of 291.

ENKPAAGETPSQPGA had an antibody binding signal of 319.

For PSGKDNKTATGGAPS, the antibody binding signal was found to be 4160.

Sequence KKAAAGGAPSQSGAS came in with an antibody binding signal of 324.

Consider DNKAAAGGTPSPPGA, for which the antibody binding signal is 250.

Sequence TEKKAAAGGTPSQSG displayed an antibody binding signal of 634.

Consider TEKKPATGGAPSPSG, for which the antibody binding signal is 1800.

Turning to KPAAGGTPSQSGASS, the antibody binding signal stood at 350.

Regarding GKEKKTATGGAPSQP, the antibody binding signal stood at 2610.

ISTPPSGKDNKAAAG: the antibody binding signal came to 23800.

Regarding GKENKAAAGEAPSPP, the antibody binding signal worked out at 8180.

In turn, KAAAGETPSPPGASS displayed an antibody binding signal of 195.

On to KEKKTAAGEAPSPSG, for which the antibody binding signal was 197.

EKKTATGETPSQSGA returned an antibody binding signal of 463.

Consider TEKKTAAGGAPSQSG, for which the antibody binding signal came to 869.

In the case of DNKTAAGEAPSPPGA, the antibody binding signal is 296.

Consider DKKPAAGETPSQPGA, for which the antibody binding signal was 264.

GKDKKTATGGTPSPS displayed an antibody binding signal of 676.

On to GKDKKPATGETPSPP, for which the antibody binding signal worked out at 4520.

The subject of a further experiment is pooled sera of chronic Chagas disease patients, USA. Described as above. Here is the method:
as §1
DNKTATGEAPSQPGA showed an antibody binding signal of 20000.

TDKKAAAGETPSPPG gave an antibody binding signal of 2300.

Take PPSGTEKKAAAGETP: the antibody binding signal stood at 3290.

TISTPPSGTEKKAAT yielded an antibody binding signal of 3370.

In turn, SGTDNKPATGEAPSQ registered an antibody binding signal of 33300.

With SGKDNKAATGEAPSQ, the antibody binding signal worked out at 24700.

GKDKKTAAGEAPSQS had an antibody binding signal of 3010.

As for KKTATGEAPSPSGAS, the antibody binding signal was found to be 13500.

As for ISTPPSGTENKAAAG, the antibody binding signal was determined as 27200.

GTEKKPATGEAPSPS came in with an antibody binding signal of 38900.

Take ENKTATGETPSPPGA: the antibody binding signal amounted to 7460.

In turn, KDKKAATGEAPSQSG came in with an antibody binding signal of 17700.

SGTDNKAAAGGTPSP yielded an antibody binding signal of 994.

TDNKAAAGETPSQPG had an antibody binding signal of 1550.

Take PPSGTENKAATGGAP: the antibody binding signal is 12300.

Turning to GKDNKAAAGEAPSQS, the antibody binding signal was 12300.

Sequence PPSGTDNKPATGGAP showed an antibody binding signal of 14500.

For PSGKEKKAAAGGTPS, the antibody binding signal came to 8200.

As to TDKKTAAGEAPSQSG, the antibody binding signal is 6150.

KAAAGETPSQPGASS returned an antibody binding signal of 1400.

In turn, TDKKAAAGGTPSQPG gave an antibody binding signal of 1440.

Take NKTATGEAPSPPGAS: the antibody binding signal came to 17900.

Turning to ENKPAAGETPSQPGA, the antibody binding signal turned out to be 5310.

In the case of PSGKDNKTATGGAPS, the antibody binding signal was determined as 3410.

In turn, KKAAAGGAPSQSGAS returned an antibody binding signal of 258.

DNKAAAGGTPSPPGA had an antibody binding signal of 992.

In turn, TEKKAAAGGTPSQSG yielded an antibody binding signal of 2240.

Consider TEKKPATGGAPSPSG, for which the antibody binding signal was found to be 3090.

Regarding KPAAGGTPSQSGASS, the antibody binding signal turned out to be 294.

GKEKKTATGGAPSQP yielded an antibody binding signal of 1950.

As to ISTPPSGKDNKAAAG, the antibody binding signal came to 1900.

For the sequence GKENKAAAGEAPSPP, the antibody binding signal came out at 19700.

KAAAGETPSPPGASS showed an antibody binding signal of 727.

In turn, KEKKTAAGEAPSPSG came in with an antibody binding signal of 4190.

In turn, EKKTATGETPSQSGA returned an antibody binding signal of 6670.

Turning to TEKKTAAGGAPSQSG, the antibody binding signal was 1330.

DNKTAAGEAPSPPGA yielded an antibody binding signal of 6780.

Regarding DKKPAAGETPSQPGA, the antibody binding signal came out at 2560.

In turn, GKDKKTATGGTPSPS came in with an antibody binding signal of 1530.

Sequence GKDKKPATGETPSPP had an antibody binding signal of 19900.
